Whole data set: some 81,000 sequences, median “one-hybrid fitness for binding NBS DNA” near -0.1, cut for the highest 2% near 0.36. Some of the results follow.
B1: Caulobacter ParB omega fusion; a variant is named by its letters at X, in order, B8GW30 (parent)
chain: MESVVVGEPGMSEGRRGLGRGLSALLGEVDAAPAQAPGEQLGGSREAPIEILQRNPDQPRRTFREEDLEDLSNSIREKGVLQPILVRPSPDTAGEYQIVAGERAWRAAQRAGLKTVPIMVRELDDLAVLEIGIIENVQRADLNVLEEALSYKVLMEKFERTQENIAQTIGKSXSHVANXMRLLXLPDEVQSYLVSGELTAXHARAIAAAADPVALAKQIIEGGLSVRETEALARKAPNLSAGKSKGGRPPRVKDTDTQALESDLSSVLGLDVSIDHRGSTGTLTITYATLEQLDDLCNRLTRGI

Variants of: B1
Assay: one-hybrid fitness for binding NBS DNA (the Noc-binding site; scaled: cognate 1, non-cognate 0); higher = stronger binding
Conditions: with NBS DNA site
Summary of the method: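 The reporter was HIS3, with the binding site 19 bp from the promoter, in E. coli USO used for bacterial one-hybrid selection of Caulobacter ParB libraries with four specificity codons randomised. Growth was on M9 lacking histidine, with 0.1 mM IPTG and 5 mM 3-AT, for 48 hours at 37°C. Illumina sequencing covered plasmids before and after selection; three replicate libraries were pooled and variants with under 10 reads dropped. A fitness score is the log change in variant-to-wild-type read ratio, rescaled to the cognate and non-cognate references.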

| Variant | one-hybrid fitness for binding NBS DNA |
| --- | --- |
| RTLD | ≤ 0.2 |
| IHWG | ≤ 0.2 |
| GACL | ≤ 0.2 |
| MLCF | ≤ 0.2 |
| LCWT | ≤ 0.2 |
| FNDL | ≤ 0.2 |
| VRRY | ≤ 0.2 |
| AMCR | ≤ 0.2 |
| TTQL | ≤ 0.2 |
| YMFG | ≤ 0.2 |
| RNQT | ≤ 0.2 |
| YQQG | ≤ 0.2 |
| IGPM | ≤ 0.2 |
| PPPD | ≤ 0.2 |
| MEYT | ≤ 0.2 |
| DAKG | ≤ 0.2 |
| LRWC | ≤ 0.2 |
| YYER | ≤ 0.2 |
| WKER | ≤ 0.2 |
| RGKT | 0.24 |
| THFE | ≤ 0.2 |
| PPTG | ≤ 0.2 |
| GCMC | ≤ 0.2 |
| LGKY | ≤ 0.2 |

| Variant | one-hybrid fitness for binding NBS DNA |
| --- | --- |
| FMVG | ≤ 0.2 |
| NYTW | ≤ 0.2 |
| WQTA | ≤ 0.2 |
| CSDA | ≤ 0.2 |
| LKVQ | ≤ 0.2 |
| LDRY | ≤ 0.2 |
| DCIG | ≤ 0.2 |
| YSPL | ≤ 0.2 |
| LPKF | ≤ 0.2 |
| IACN | ≤ 0.2 |
| WNLY | ≤ 0.2 |
| MIYW | ≤ 0.2 |
| ECHV | ≤ 0.2 |
| ATAG | ≤ 0.2 |
| QVQC | ≤ 0.2 |
| ADVN | ≤ 0.2 |
| TEYY | ≤ 0.2 |
| PRQA | ≤ 0.2 |
| LRPL | ≤ 0.2 |
| VFVQ | ≤ 0.2 |
| GPQK | ≤ 0.2 |
| ATKI | ≤ 0.2 |
| FCIV | ≤ 0.2 |
| NCSD | ≤ 0.2 |

| Variant | one-hybrid fitness for binding NBS DNA |
| --- | --- |
| MAIA | ≤ 0.2 |
| ERSS | ≤ 0.2 |
| NADD | ≤ 0.2 |
| DGMR | ≤ 0.2 |
| RQTN | ≤ 0.2 |
| KVAV | ≤ 0.2 |
| CSKY | ≤ 0.2 |
| TAPH | ≤ 0.2 |
| TSCN | ≤ 0.2 |
| MPIL | ≤ 0.2 |
| TSKV | ≤ 0.2 |
| WSPY | ≤ 0.2 |
| MQPR | ≤ 0.2 |
| SCHC | ≤ 0.2 |
| GSVE | ≤ 0.2 |
| QHAY | ≤ 0.2 |
| MSPT | ≤ 0.2 |
| PVRL | ≤ 0.2 |
| YDNV | ≤ 0.2 |
| HSVC | ≤ 0.2 |
| PMRA | ≤ 0.2 |
| LYGG | ≤ 0.2 |
| RGDN | ≤ 0.2 |
| LGIF | ≤ 0.2 |

| Variant | one-hybrid fitness for binding NBS DNA |
| --- | --- |
| YLGR | ≤ 0.2 |
| RDVC | ≤ 0.2 |
| YDPL | ≤ 0.2 |
| CGRF | ≤ 0.2 |
| DHCF | ≤ 0.2 |
| SASD | ≤ 0.2 |
| NAKQ | ≤ 0.2 |
| QWRS | ≤ 0.2 |
| CEVT | ≤ 0.2 |
| PERE | ≤ 0.2 |
| WKLW | ≤ 0.2 |
| YHLR | ≤ 0.2 |
| HSKN | ≤ 0.2 |
| QGVS | ≤ 0.2 |
| NTWG | ≤ 0.2 |
| RHHQ | ≤ 0.2 |
| KTKS | 0.29 |
| ILYC | ≤ 0.2 |
| SYIV | ≤ 0.2 |
| LKPE | ≤ 0.2 |
| LALP | ≤ 0.2 |
| PGNC | ≤ 0.2 |
| NKLS | ≤ 0.2 |
| PYAS | ≤ 0.2 |

| Variant | one-hybrid fitness for binding NBS DNA |
| --- | --- |
| WQAR | ≤ 0.2 |
| YRHW | ≤ 0.2 |
| DCDD | ≤ 0.2 |
| VAFA | ≤ 0.2 |
| TFGC | ≤ 0.2 |
| RNEC | ≤ 0.2 |
| RKYY | ≤ 0.2 |
| CHHF | ≤ 0.2 |
| WRVA | ≤ 0.2 |
| CREE | ≤ 0.2 |
| TCEG | ≤ 0.2 |
| NFHF | ≤ 0.2 |
| NHLA | ≤ 0.2 |
| TDDD | ≤ 0.2 |
| VVAG | ≤ 0.2 |
| RGGL | ≤ 0.2 |
| PVWW | ≤ 0.2 |
| RFDN | ≤ 0.2 |
| PKQR | ≤ 0.2 |
| NCVD | ≤ 0.2 |
| KWMG | ≤ 0.2 |
| LPTV | ≤ 0.2 |
| LLIT | ≤ 0.2 |
| GDNI | ≤ 0.2 |

| Variant | one-hybrid fitness for binding NBS DNA |
| --- | --- |
| RLTN | ≤ 0.2 |
| TRMG | ≤ 0.2 |
| LATW | ≤ 0.2 |
| VVVF | ≤ 0.2 |
| KDHR | ≤ 0.2 |
| FPCC | ≤ 0.2 |
| LRAS | ≤ 0.2 |
| CNTV | ≤ 0.2 |
| PEVR | ≤ 0.2 |
| RWCD | ≤ 0.2 |
| DPWS | ≤ 0.2 |
| RHSH | ≤ 0.2 |
| MDNG | ≤ 0.2 |
| IAPH | ≤ 0.2 |
| ALEW | ≤ 0.2 |
| PYAT | ≤ 0.2 |
| WRKG | ≤ 0.2 |
| EAVG | ≤ 0.2 |
| QVFG | ≤ 0.2 |
| GVNT | ≤ 0.2 |
| WTLN | ≤ 0.2 |
| TGTR | ≤ 0.2 |
| APPD | ≤ 0.2 |
| VLGG | ≤ 0.2 |

| Variant | one-hybrid fitness for binding NBS DNA |
| --- | --- |
| PFHL | ≤ 0.2 |
| KNFR | ≤ 0.2 |
| VDYV | ≤ 0.2 |
| LKQG | ≤ 0.2 |
| ECYC | ≤ 0.2 |
| DVPC | ≤ 0.2 |
| CFES | ≤ 0.2 |
| SDIS | ≤ 0.2 |
| SQAE | ≤ 0.2 |
| HKRQ | ≤ 0.2 |
| VTCL | ≤ 0.2 |
| VLAY | ≤ 0.2 |
| WPES | ≤ 0.2 |
| WTVC | ≤ 0.2 |
| MACA | ≤ 0.2 |
| WPQC | ≤ 0.2 |
| LGSF | ≤ 0.2 |
| ICRT | ≤ 0.2 |
| PGSW | ≤ 0.2 |
| ECGS | ≤ 0.2 |
| SLDT | ≤ 0.2 |
| VWSR | ≤ 0.2 |
| GAMW | ≤ 0.2 |
| MQCS | ≤ 0.2 |

| Variant | one-hybrid fitness for binding NBS DNA |
| --- | --- |
| ACHH | ≤ 0.2 |
| SMAR | ≤ 0.2 |
| HGAN | ≤ 0.2 |
| KWHC | ≤ 0.2 |
| YGSW | ≤ 0.2 |
| EKYT | ≤ 0.2 |
| IYHW | ≤ 0.2 |
| HPPD | ≤ 0.2 |
| VSPD | ≤ 0.2 |
| NEAL | ≤ 0.2 |
| NLRC | ≤ 0.2 |
| FSLF | ≤ 0.2 |
| RGQA | ≤ 0.2 |
| QVYG | ≤ 0.2 |
| QQHS | 0.476 |
| QGII | ≤ 0.2 |
| CAWG | ≤ 0.2 |
| IFNC | ≤ 0.2 |
| QQYT | 0.473 |
| TMRG | ≤ 0.2 |
| RKFS | 0.435 |
| HYMY | ≤ 0.2 |
| LDAF | ≤ 0.2 |
| NLCV | ≤ 0.2 |

| Variant | one-hybrid fitness for binding NBS DNA |
| --- | --- |
| LDVT | ≤ 0.2 |
| QNYY | ≤ 0.2 |
| VPFS | ≤ 0.2 |
| DRFN | ≤ 0.2 |
| QCRA | 0.658 |
| NETK | ≤ 0.2 |
| YQSD | ≤ 0.2 |
| AFSL | ≤ 0.2 |
| RSAK | ≤ 0.2 |
| CRPA | ≤ 0.2 |
| RITA | ≤ 0.2 |
| LPIY | ≤ 0.2 |
| QLAF | ≤ 0.2 |
| RIES | ≤ 0.2 |
| TYNC | ≤ 0.2 |
| SMFC | ≤ 0.2 |
| KERT | ≤ 0.2 |
| DWHY | ≤ 0.2 |
| AFNG | ≤ 0.2 |
| YRLD | ≤ 0.2 |
| KLAV | ≤ 0.2 |
| ASSC | ≤ 0.2 |
| TCNW | ≤ 0.2 |
| RTMN | ≤ 0.2 |

| Variant | one-hybrid fitness for binding NBS DNA |
| --- | --- |
| KHPR | ≤ 0.2 |
| RVTR | 0.429 |
| RMSP | ≤ 0.2 |
| QCMT | 0.477 |
| RKNC | 0.281 |
| LVYY | ≤ 0.2 |
| GLCG | ≤ 0.2 |
| FEKL | ≤ 0.2 |
| QDST | ≤ 0.2 |
| DFNL | ≤ 0.2 |
| LGQV | ≤ 0.2 |
| VLQN | ≤ 0.2 |
| QLIC | ≤ 0.2 |
| RACH | ≤ 0.2 |
| NNNR | ≤ 0.2 |
| TETI | ≤ 0.2 |
| FCHS | ≤ 0.2 |
| QLRE | ≤ 0.2 |
| TADK | ≤ 0.2 |
| VQYD | ≤ 0.2 |
| LFYN | ≤ 0.2 |
| MPAI | ≤ 0.2 |
| HMSS | ≤ 0.2 |
| NGCC | ≤ 0.2 |

| Variant | one-hybrid fitness for binding NBS DNA |
| --- | --- |
| DLNM | ≤ 0.2 |
| TEEG | ≤ 0.2 |
| FMSD | ≤ 0.2 |
| QEEP | ≤ 0.2 |
| AGVT | ≤ 0.2 |
| SDSS | ≤ 0.2 |
| LYTW | ≤ 0.2 |
| LFFK | ≤ 0.2 |
| VLAH | ≤ 0.2 |
| LTGM | ≤ 0.2 |
| GKDS | ≤ 0.2 |
| QMHL | ≤ 0.2 |
| NKLC | ≤ 0.2 |
| QRLF | 0.238 |
| RNMD | ≤ 0.2 |
| VPSG | ≤ 0.2 |
| MYMR | ≤ 0.2 |
| LNHI | ≤ 0.2 |
| LYYL | ≤ 0.2 |
| DTFI | ≤ 0.2 |
| MNLT | ≤ 0.2 |
| SGFW | ≤ 0.2 |
| PRLF | ≤ 0.2 |
| RTGK | ≤ 0.2 |

| Variant | one-hybrid fitness for binding NBS DNA |
| --- | --- |
| RRGH | 0.44 |
| DMHG | ≤ 0.2 |
| KLNM | ≤ 0.2 |
| TDDT | ≤ 0.2 |
| NMLV | ≤ 0.2 |
| DMPM | ≤ 0.2 |
| ICTT | ≤ 0.2 |
| IPCY | ≤ 0.2 |
| MQNS | ≤ 0.2 |
| RAML | ≤ 0.2 |
| QHET | 0.272 |
| RPKD | ≤ 0.2 |
| EAMR | ≤ 0.2 |
| HVLV | ≤ 0.2 |
| PVHV | ≤ 0.2 |
| HPRS | ≤ 0.2 |
| EWPP | ≤ 0.2 |
| ADAV | ≤ 0.2 |
| IRSR | 0.282 |
| TFCT | ≤ 0.2 |
| AYAD | ≤ 0.2 |
| PGGL | ≤ 0.2 |
| ILQP | ≤ 0.2 |
| HTPM | ≤ 0.2 |

| Variant | one-hybrid fitness for binding NBS DNA |
| --- | --- |
| GVDG | ≤ 0.2 |
| VARL | ≤ 0.2 |
| QDVY | ≤ 0.2 |
| CCSW | ≤ 0.2 |
| WSMR | ≤ 0.2 |
| FNQS | ≤ 0.2 |
| QRPM | ≤ 0.2 |
| RVWD | ≤ 0.2 |
| YCAG | ≤ 0.2 |
| QMGV | ≤ 0.2 |
| RVWW | ≤ 0.2 |
| IQHR | ≤ 0.2 |
| ACKR | 0.22 |
| MELF | ≤ 0.2 |
| WQRS | ≤ 0.2 |
| PQRA | ≤ 0.2 |
| AVVH | ≤ 0.2 |
| PDGD | ≤ 0.2 |
